Repeats are few or missing, and single values can be far off.
Tests used:
[1] = tested on: CHO-K1; assay: micronucleus frequency (% of nucleated events); higher = more micronuclei (genotoxic)
[2] = tested on: CHO-K1; assay: hypodiploid nuclei frequency (% of nucleated events); higher = more hypodiploid events (aneugenic)
Method: (§1)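 Flow-cytometric in vitro micronucleus assay (Litron MicroFlow) in CHO-K1 cells in 96-well plates, 19 concentrations (4.5-200 µM, n=1 per concentration). Without S9, cells were exposed for 24 h and sampled at 48 h. With Aroclor 1254-induced rat liver S9, cells were exposed for 3-4 h and sampled at 27-28 h. Read-outs are %MN and %hypodiploid nuclei relative to nucleated events, and relative survival as the nuclei-to-bead ratio versus the 1% DMSO vehicle control (x100).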

[3] = tested on: CHO-K1; assay: relative survival (nuclei to bead ratio vs DMSO control) (% of vehicle control); higher = more surviving cells
Method: as §1
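Throughout, for hypodiploid nuclei frequency (% of nucleated events): hypodiploid nuclei gated on a flow cytometer with 488 nm excitation after SYTOX Green staining, cultures at 37 °C, positive controls vinblastine without S9 and cyclophosphamide with S9.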
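Throughout, for micronucleus frequency (% of nucleated events): cells lysed with nuclei stained by SYTOX Green, then micronucleus-gated events counted against nucleated events by flow cytometry with 488 nm excitation.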
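Throughout, for relative survival (nuclei to bead ratio vs DMSO control): Lysed-cell nuclei stained with SYTOX Green and counted against counting beads by flow cytometry at 488 nm excitation, with vinblastine (no S9) and cyclophosphamide (plus S9) as positive controls.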

Clc1ccc(Cl)cc1 [1,4-Dichlorobenzene]
Settings | hypodiploid nuclei frequency, [2] [%] | micronucleus frequency, [1] [%] | relative survival, [3]
concentration: 4.5 (µM), S9 metabolic activation: with S9, exposure time: 3-4 hours | 0.24 | 1.46 | 119
concentration: 4.5 (µM), S9 metabolic activation: without S9, exposure time: 24 hours | 1.2 | 1.36 | 99
concentration: 5.63 (µM), S9 metabolic activation: with S9, exposure time: 3-4 hours | 0.1 | 1.3 | 89.8
concentration: 5.63 (µM), S9 metabolic activation: without S9, exposure time: 24 hours | 1.08 | 1.56 | 107
concentration: 7.04 (µM), S9 metabolic activation: with S9, exposure time: 3-4 hours | 0.28 | 1.52 | 90.6
concentration: 7.04 (µM), S9 metabolic activation: without S9, exposure time: 24 hours | 0.78 | 1.26 | 97.8
concentration: 8.8 (µM), S9 metabolic activation: with S9, exposure time: 3-4 hours | 0.14 | 1.04 | 90.1
concentration: 8.8 (µM), S9 metabolic activation: without S9, exposure time: 24 hours | 1.02 | 1.06 | 97.4
concentration: 11 (µM), S9 metabolic activation: with S9, exposure time: 3-4 hours | 0.3 | 1.42 | 82.4
concentration: 11 (µM), S9 metabolic activation: without S9, exposure time: 24 hours | 0.64 | 1.42 | 85
concentration: 13.7 (µM), S9 metabolic activation: with S9, exposure time: 3-4 hours | 0.26 | 1.42 | 105
concentration: 13.7 (µM), S9 metabolic activation: without S9, exposure time: 24 hours | 0.86 | 1.16 | 93.1
concentration: 17.2 (µM), S9 metabolic activation: with S9, exposure time: 3-4 hours | 0.24 | 1.2 | 102
concentration: 17.2 (µM), S9 metabolic activation: without S9, exposure time: 24 hours | 0.72 | 1.12 | 90.2
concentration: 21.5 (µM), S9 metabolic activation: with S9, exposure time: 3-4 hours | 0.22 | 1.34 | 87.6
concentration: 21.5 (µM), S9 metabolic activation: without S9, exposure time: 24 hours | 0.82 | 0.76 | 102
concentration: 26.8 (µM), S9 metabolic activation: with S9, exposure time: 3-4 hours | 0.2 | 1.22 | 124
concentration: 26.8 (µM), S9 metabolic activation: without S9, exposure time: 24 hours | 1.14 | 1.18 | 75.1
concentration: 33.6 (µM), S9 metabolic activation: with S9, exposure time: 3-4 hours | 0.42 | 1.74 | 120
concentration: 33.6 (µM), S9 metabolic activation: without S9, exposure time: 24 hours | 1.9 | 1.22 | 71.9
concentration: 41.9 (µM), S9 metabolic activation: with S9, exposure time: 3-4 hours | 0.18 | 1.94 | 143
concentration: 41.9 (µM), S9 metabolic activation: without S9, exposure time: 24 hours | 1.44 | 0.88 | 96.2
concentration: 52.4 (µM), S9 metabolic activation: with S9, exposure time: 3-4 hours | 0.22 | 1.56 | 112
concentration: 52.4 (µM), S9 metabolic activation: without S9, exposure time: 24 hours | 0.96 | 1.34 | 92
concentration: 65.5 (µM), S9 metabolic activation: with S9, exposure time: 3-4 hours | 0.3 | 1.88 | 115
concentration: 65.5 (µM), S9 metabolic activation: without S9, exposure time: 24 hours | 1.02 | 1.7 | 98.6
concentration: 81.9 (µM), S9 metabolic activation: with S9, exposure time: 3-4 hours | 0.28 | 1.72 | 94.1
concentration: 81.9 (µM), S9 metabolic activation: without S9, exposure time: 24 hours | 0.94 | 1.22 | 104
concentration: 102 (µM), S9 metabolic activation: with S9, exposure time: 3-4 hours | 0.26 | 1.3 | 103
concentration: 102 (µM), S9 metabolic activation: without S9, exposure time: 24 hours | 1.18 | 1.56 | 85.6
concentration: 128 (µM), S9 metabolic activation: with S9, exposure time: 3-4 hours | 0.28 | 1.92 | 114
concentration: 128 (µM), S9 metabolic activation: without S9, exposure time: 24 hours | 1.34 | 1.96 | 95.4
concentration: 160 (µM), S9 metabolic activation: with S9, exposure time: 3-4 hours | 0.32 | 1.88 | 94.6
concentration: 160 (µM), S9 metabolic activation: without S9, exposure time: 24 hours | 1.18 | 1.48 | 99.9
concentration: 200 (µM), S9 metabolic activation: with S9, exposure time: 3-4 hours | 0.36 | 1.64 | 91.1
concentration: 200 (µM), S9 metabolic activation: without S9, exposure time: 24 hours | 1.4 | 2 | 79.5
